Assay results as given in PubChem BioAssay AID488969 (Vanderbilt High Throughput Screening Facility, 2010).
The full ranking holds about 110,000 compounds; the median of “z-score” is about -0.1, and the highest 2% start at about 2. Some of the results follow. Active and inactive are the calls of the source.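 The calls were made as follows: active = z-score in the third read window above 3 or below -3; inactive = the rest.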

These compounds were tested against Metabotropic glutamate receptor 8 (Rattus norvegicus) (UniProt P70579) (assay: rat mGluR8 modulators via GIRK flux, primary screen, cell-based, thallium flux, HTS (AID 488969)). Details: HEK293 rat mGluR8, GIRK (G protein-gated inwardly rectifying potassium channel) thallium flux, FluoZin2; at 10 µM; stronger effect = higher value; submaximal glutamate (EC20) added with thallium.
Sequence of UniProt P70579 (P70579 whole entry, looked up): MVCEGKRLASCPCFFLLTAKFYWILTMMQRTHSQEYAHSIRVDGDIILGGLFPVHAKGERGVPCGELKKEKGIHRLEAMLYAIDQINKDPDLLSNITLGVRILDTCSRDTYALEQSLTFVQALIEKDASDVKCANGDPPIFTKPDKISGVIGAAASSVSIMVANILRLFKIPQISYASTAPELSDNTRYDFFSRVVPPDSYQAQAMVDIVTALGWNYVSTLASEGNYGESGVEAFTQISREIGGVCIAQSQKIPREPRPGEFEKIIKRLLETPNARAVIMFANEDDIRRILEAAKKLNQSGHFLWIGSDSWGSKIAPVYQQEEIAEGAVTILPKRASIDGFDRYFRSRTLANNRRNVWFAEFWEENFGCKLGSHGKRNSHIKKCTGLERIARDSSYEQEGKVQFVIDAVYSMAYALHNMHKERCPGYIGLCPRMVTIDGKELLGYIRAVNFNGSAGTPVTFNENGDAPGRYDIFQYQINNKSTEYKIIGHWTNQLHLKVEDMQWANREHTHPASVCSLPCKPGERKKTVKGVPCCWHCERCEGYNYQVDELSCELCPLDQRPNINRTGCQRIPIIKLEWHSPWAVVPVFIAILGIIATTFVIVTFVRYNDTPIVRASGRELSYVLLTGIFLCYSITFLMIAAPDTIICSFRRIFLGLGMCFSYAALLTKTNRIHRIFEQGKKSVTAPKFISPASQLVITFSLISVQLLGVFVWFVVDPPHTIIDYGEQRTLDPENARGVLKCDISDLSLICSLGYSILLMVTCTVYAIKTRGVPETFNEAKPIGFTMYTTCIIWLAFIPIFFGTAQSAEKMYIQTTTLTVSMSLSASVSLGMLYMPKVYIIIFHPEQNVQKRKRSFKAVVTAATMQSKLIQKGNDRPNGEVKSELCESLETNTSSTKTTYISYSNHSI
With `Cc1ccc(Oc2ncnc3sccc23)cc1` the z-score was 0.102. In the case of `CCc1ccc(NC(=O)c2noc3c2CCC3)cc1`, the z-score is reported as 0.285. `O=C(Cn1c(SCc2ccccc2)nc2ccccc21)N1CCOCC1` was tested, and the z-score was -0.096. For `CN(Cc1cccc(Cl)c1Cl)C(=O)c1ccc(NC(=O)CC#N)cc1`, the z-score was -0.558. With `CN1CCCC(CC2Oc3ccccc3Sc3ccccc32)C1` (stereo unspecified) the z-score was 0.766. `COc1ccc2c3c(c(=O)oc2c1OCC(N)=O)CCCC3` was tested, and the z-score was -0.489. For `Nc1nonc1NC(=O)CSc1nc2ccccc2s1`, the z-score was -0.00432. Compound `CCOC(=O)c1c(/N=C/N(C)C)sc(C(=O)OC)c1C` has a z-score of 0.721. Work on `CC(C)(C)NC(=O)COC(=O)c1snc(C(=O)NC2CCCCC2)c1N` yielded a z-score of 0.25. For `Cc1nc(Nc2c(Cl)cccc2Cl)sc1C(=O)Nc1ccccc1`, the z-score was -0.0239. `O=S(=O)(c1ccc(F)cc1)n1ccc2cccnc21` was tested, and the z-score was -0.0458. Work on `CCCCC(=O)NC(c1cccc([N+](=O)[O-])c1)c1c(OC(C)=O)ccc2ccccc12` (stereo unspecified) yielded a z-score of -0.98. For `COc1c(F)c(F)c(C(=O)Nc2ccc(N3CCN(Cc4ccccc4)CC3)cc2)c(F)c1F`, the z-score was -0.191. In the case of `COc1cccc(OCCn2cc(/C=N/NC(=O)c3ccncc3)c3ccccc32)c1`, the z-score is reported as 0.0038. For `Cn1c(=O)c2c(ncn2CC(=O)N2CCN(c3ccc(F)cc3)CC2)n(C)c1=O`, the z-score was -0.244. In the case of `CCc1ccccc1NC(=O)CN(C)C(=O)Cn1ncc(Cl)c(Cl)c1=O`, the z-score is reported as 0.269. Work on `CCCCNC(=O)c1onc(CSc2ccc(Cl)cc2)c1C(=O)O` yielded a z-score of -0.552. `Cc1ccccc1OCC(=O)NNC(=S)NC(=O)c1ccco1` was tested, and the z-score was active: 8.07. For `CCn1cnc2cc(NCc3nc4ccccc4n3Cc3ccccc3)ccc21`, the z-score was -0.34. For `O=C(CSc1nnc(NC2CCCCC2)s1)NN1C(=O)NC2(CCCCC2)C1=O`, the z-score was 0.151. With `CC(=O)Nc1ccc2c(c1)nc(CCNC(=O)c1ccccc1)n2C` the z-score was -0.205. Work on `COc1cc(NC(=O)CN2C(=O)NC(c3ccccc3)(c3ccccc3)C2=O)c(C)cc1[N+](=O)[O-]` yielded a z-score of -0.621. For `O=C(Nc1ncc(Br)s1)C(Cc1ccccc1)n1cccc1` (stereo unspecified), the z-score was active: 7. `NC(=O)CSc1nnc(-c2ccco2)n1N` gave a z-score of 0.137. `COCCn1c(SCc2nc3ccccc3c(=O)[nH]2)nnc1-c1ccncc1` showed a z-score of 0.00578. `O=C(NNC(=O)c1ccccc1Cl)c1cccs1` gave a z-score of 0.286. Compound `O=C(NC(=S)N(CCc1ccccc1)CCc1ccccc1)c1ccco1` has a z-score of -1.87. Compound `C=CCNC(=S)N/N=C/c1ccc(-c2cc(Cl)ccc2Cl)o1` has a z-score of 0.31. `Cc1cc(N2CCOCC2)c2c(N)c(C)cc(C)c2n1` showed a z-score of 0.0623. Compound `CCCCc1c(C)nc(Nc2ccc(OC)cc2)[nH]c1=O` has a z-score of -0.449. With `O=C(NCC1COc2ccccc2O1)C1CCCN(S(=O)(=O)c2cccc3nsnc23)C1` (stereo unspecified) the z-score was 0.528. With `CCCCn1c(N)nc2ccccc21` the z-score was -0.706. With `COc1cccc(C(C(=O)NC2CCCC2)N(Cc2ccc(C)cc2)C(=O)c2ccco2)c1OC` (stereo unspecified) the z-score was -0.348. `COc1ccc(N2C(=O)CC(SCCc3nc4ccccc4[nH]3)C2=O)cc1` (stereo unspecified) gave a z-score of -0.0147. For `COc1cccc(Nc2nc(=O)[nH]nc2C)c1`, the z-score was -0.171. `Cc1ccc(CNC(=O)c2ccc([N+](=O)[O-])o2)cc1` gave a z-score of -0.291. For `CC(C)NC(=O)C(Cc1ccccc1)N1C(=O)c2ccccc2C1=O` (stereo unspecified), the z-score was -0.79. `O=C(COc1ccc(F)cc1)NCC1CCCO1` (stereo unspecified) showed a z-score of 0.0433. `CC1=CC(=O)C=CC1(C)C(Cl)Cl` (stereo unspecified) was tested, and the z-score was -0.0822. `CCc1cc2cc3c(cc2nc1SCC(=O)Nc1nnc(C)s1)OCCO3` showed a z-score of 0.803. Compound `CCCCNC(=O)CC1C(=O)N(Cc2ccccc2)C(C)c2nc3ccccc3n21` (stereo unspecified) has a z-score of -0.0491. In the case of `COc1ccccc1C1C=C(c2ccc(Cl)cc2)Nc2nc(NS(C)(=O)=O)nn21` (stereo unspecified), the z-score is reported as -0.156. Compound `C=CCn1c(=NC(=O)CN2C(=O)CCC2=O)sc2cccc(OC)c21` has a z-score of 0.0668. With `COc1ccccc1Nc1nc(-c2c(C)[nH]c3ccccc23)cs1` the z-score was -0.196. Work on `Cc1cccc(NC(=O)CN2C(=O)N/C(=C/c3cc(C)n(C(C)C)c3C)C2=O)c1` yielded a z-score of -0.148. In the case of `CC(=O)Oc1ccc(C2OC(=O)c3ccccc3N2C(C)=O)cc1` (stereo unspecified), the z-score is reported as -1.82. For `CC(=O)Nc1ccc(N2C(=O)CSC2c2c(F)cccc2Cl)cc1` (stereo unspecified), the z-score was -0.181. `COc1ccc2c(c1)c(CC(=O)Nc1ccc(C)cc1)c(C)n2C(=O)c1ccc(Cl)cc1` was tested, and the z-score was -0.284. `Cc1cccc(N2CCN(C(c3ccccc3)c3nnnn3CC3CCCO3)CC2)c1C` (stereo unspecified) gave a z-score of 0.735. `COCCNC(=O)C(c1ccc(O)cc1)N(Cc1ccco1)C(=O)CCC(=O)Nc1nccs1` (stereo unspecified) was tested, and the z-score was 0.231. For `COc1cccc(C(=O)N2CCN(CCCc3ccccc3)CC2)c1OC`, the z-score was -0.632. `COc1ccc(/C=N/NC(=O)Cn2nc(C)c([N+](=O)[O-])c2C)cc1` was tested, and the z-score was -1.01. `O=C(c1cnc2n(c1=O)CCS2)N(C1CCCCC1)C1CCCCC1` was tested, and the z-score was -0.0183. `CC/C(=N/Nc1ccccc1Cl)c1cnnc(-c2ccccc2)n1` was tested, and the z-score was 0.658. Work on `O=C(Oc1ccc(/C=N/NC(=O)c2ccccc2O)cc1)c1ccccc1` yielded a z-score of -0.24. Compound `CCOC(=O)c1c(NC(=O)CN(C)C)sc(C(=O)N(CC)CC)c1C` has a z-score of -0.0791. In the case of `Cc1cc(C)nc(N/N=C/c2ccco2)n1`, the z-score is reported as -0.139. With `O=c1[nH]c2ccccc2n1CCC1CCCCC1` the z-score was active: 5.05. In the case of `OC(COc1ccccc1)CN1C2=NCCCN2c2ccccc21` (stereo unspecified), the z-score is reported as 0.279. `CCCOc1cccc(C(=O)Nc2cc(NC(=O)c3ccco3)ccc2OC)c1` gave a z-score of 0.313. For `CCCOc1ccc(-c2c(C(=O)N/N=C/c3ccc(OC)cc3)nnn2-c2nonc2N)cc1`, the z-score was 0.265. With `COc1ccc(-n2c(Cc3cc(=O)[nH]c(=O)[nH]3)nnc2SCC(=O)N2CCCC2)cc1` the z-score was -0.287. `O=C1CCCN1c1ccc(S(=O)(=O)N2CCC(c3ccccc3)CC2)cc1` was tested, and the z-score was 0.366. In the case of `Cc1ccc(NC(=O)C2C(C(=O)O)C3C=CC2C32CC2)cc1` (stereo unspecified), the z-score is reported as -0.135. In the case of `COc1ccc(-c2cc(C(F)(F)F)nc(SCCC(=O)N3CCOCC3)n2)cc1`, the z-score is reported as -0.718. For `CCOC(=O)c1sc(NC(=O)c2cc(-c3ccccc3C)nc3ccccc23)c(C#N)c1C`, the z-score was -0.634. Work on `CC(C)(C)OC(=O)N1CCC[C@H]1c1nnc(SCc2ccc(Cl)cc2Cl)o1` yielded a z-score of -0.00439. `CCOC(=O)N1CCN(C(=O)C2c3cc(OC)c(OC)cc3C(=O)N3CCc4ccccc4C23)CC1` (stereo unspecified) gave a z-score of -0.276. `CCOn1c(=O)c(-c2cccs2)[n+]([O-])c2ccccc21` showed a z-score of -2.21. `O=C(Nc1nncs1)Oc1ccccc1` was tested, and the z-score was 0.57. In the case of `O=C1NC2=C(C(=O)CCC2)C(c2ccc3ncccc3c2)N1` (stereo unspecified), the z-score is reported as -0.0523. Work on `C/C(CC(=O)Nc1cc(C)ccn1)=N\NC(=O)C(=O)Nc1cccc(C)c1` yielded a z-score of 0.277. `O=C(NCc1ccc2c(c1)OCO2)Oc1ccccc1` showed a z-score of -0.064. With `Cc1nn2c(N)c(C#N)cnc2c1-c1ccccc1` the z-score was -0.302. In the case of `O=C(CSc1nc(-c2ccccc2)c(-c2ccccc2)[nH]1)NCCN1C(=O)CSC1=O`, the z-score is reported as -0.808. With `Cc1ccc(C(=O)Nc2cc(Cl)ccc2N2CCCCC2)s1` the z-score was -1.11. In the case of `CCOc1ccccc1C(=O)N1CCN(C(c2ccccc2)c2ccccc2)CC1`, the z-score is reported as -0.12. With `Cc1ccc(C(C)C)c(OCC(O)CN2CCN(CCO)CC2)c1` (stereo unspecified) the z-score was -0.466. `COc1ccccc1CC(=O)Nc1ccc(OC)c(OC)c1` showed a z-score of -0.605. `CCCOc1ccc(/C=N/NC(=O)C2CCCN2S(=O)(=O)c2ccc(Cl)cc2)cc1` (stereo unspecified) gave a z-score of 0.183. `CCOc1ccc(S(=O)(=O)Nc2ccc(S(=O)(=O)Nc3cc(OC)ccc3OC)cc2)cc1` gave a z-score of -0.209. Compound `CCN(CC)S(=O)(=O)c1ccc(Cl)c(C(=O)NC)c1` has a z-score of 0.574. With `Cc1cccc(NC(=O)CS(=O)(=O)Cc2ccccc2)n1` the z-score was -0.17. In the case of `O=C(c1csc2c1CCCCC2)N1CCN(c2ncccn2)CC1`, the z-score is reported as -1.53. Compound `COc1ccccc1N1CCN(C(=O)c2ccc(S(=O)(=O)N3CCCCCC3)cc2)CC1` has a z-score of -0.714. With `Cc1c(NC(=O)C(C)Sc2ccc3ccccc3n2)c(=O)n(-c2ccccc2)n1C` (stereo unspecified) the z-score was 0.238. Compound `CCOC(=O)C1=C(Nc2ccccc2)OCC1=O` has a z-score of -0.0728. In the case of `CCN(C(=O)CN1CCN(c2ccccc2O)CC1)c1c(N)n(Cc2ccccc2)c(=O)[nH]c1=O`, the z-score is reported as active: 14.3. `Cn1nc(C(=O)NCc2cccs2)c2ccccc2c1=O` was tested, and the z-score was -0.226. In the case of `Cc1cc(C)c(NC(=O)C(C)c2cccc(C(=O)c3ccccc3)c2)c(C)c1` (stereo unspecified), the z-score is reported as -0.519. `Cc1nc(NC(=O)c2ccccc2)sc1-c1csc(NCCc2ccccc2)n1` gave a z-score of 0.0397. Compound `Cc1sc(NC(=O)c2cc(-c3ccc(Cl)cc3)nc3ccccc23)c(C(N)=O)c1C` has a z-score of -0.126. In the case of `CSCCC(NC(N)=O)C(=O)N(C)CC(=O)Nc1ccc(C)cc1` (stereo unspecified), the z-score is reported as 0.191. Work on `C=CCn1c2ccccc2c2nnc(SCC(=O)OCN3C(=O)c4ccccc4C3=O)nc21` yielded a z-score of -0.529. With `CCCCNC(=O)c1cc2c(-c3ccc(Cl)cc3)nn(C)c2s1` the z-score was -0.213. Work on `Cc1cnc(NC(=O)CSc2nnc(-c3ccc(Cl)cc3Cl)n2N)s1` yielded a z-score of -0.296. `COc1ccc2nc(NC(C)=O)sc2c1` gave a z-score of -0.0562. For `COc1ccccc1C(=O)N1CCN=C1c1ccccc1`, the z-score was -0.0756. With `CS(=O)(=O)N(CC(=O)O)c1ccc2c(c1)OCO2` the z-score was -2.86. Work on `CCOC(=O)c1ccc(Oc2cc(C)nc(SC)n2)cc1` yielded a z-score of -0.937. Compound `O=S(=O)(c1cccs1)N1CCN(Cc2nc3ccccc3s2)CC1` has a z-score of 0.00246. In the case of `COc1cccc(OCCn2ccnc2)c1`, the z-score is reported as 0.0176. `CC(=O)C1C(c2ccc(Br)cc2)C2C(C)=NN=C2CC1(C)O` (stereo unspecified) was tested, and the z-score was -0.0546. `Fc1cc(F)c2nc(N3CCCCC3)sc2c1` showed a z-score of -0.14. `CSc1cccc(NC(=O)CN(C)S(=O)(=O)c2ccccc2)c1` was tested, and the z-score was -0.0254. `O=C(CSc1n[nH]c(-c2ccccc2)n1)Nc1ccc(Br)cn1` showed a z-score of -0.176. `Cc1[nH]c2ccccc2c1C(=O)/C=C/c1ccccc1` was tested, and the z-score was -0.0814. Work on `CCc1nnc(NC(=O)Nc2ccc(OC)cc2)s1` yielded a z-score of 1.1. For `CC1(C)Cc2c(c(N3CCOCC3)nc3sc4c(NCc5ccco5)nnnc4c23)CS1`, the z-score was 0.14. In the case of `O=C(O)C1[C@H]2C(=O)N(C3CCCC3)C[C@]23C=C[C@H]1O3` (stereo partly specified), the z-score is reported as 0.231. In the case of `Cc1cccc(C)c1NC1=NC2(CCCCC2)N=C(N)N1`, the z-score is reported as 0.169.
